Test results from the RNAGym collection of RNA variant scans (doi:10.7554/elife.90254).
Read counts are not given, so values of variants with three or more changes are uncertain.

B1: LINE1-mini (parent)
chain: GGCAGAGCUCAACACAGCGUGGCAAAGUGGCUGUGGCUAGACUGCC

Variants of: B1
Test: self-cleavage, relative activity (ratio to wild type); higher = more cleavage; in vitro, sequencing; the parent is a self-cleaving ribozyme

Variant | self-cleavage
GGCAGAGCUCAUCACAGCAUGGCAAAGCGGCAGUGACUAGACCGCC [A12U G19A U28C U32A G36A U43C] | 0.02
GGCAGAGCUCAUUACAACGUUGCAAAGUGGCUGUGGCUAGACUGCC [A12U C13U G17A G21U] | 0.03
GGCAGAGCUCAUCACAGCGUGGCAAAGUGUCAGUGACUAGACUGCC [A12U G30U U32A G36A] | 0.03
GGCAGAGCUCAAAACGGAAUGGCAAAGUGGUUGUGGCUAGACUGCG [C13A A16G C18A G19A C31U C46G] | 0.01
GGCAGAGCUCAUCACAGCGCGGCAAAUUGCCUGUGGCUAGACUGCC [A12U U20C G27U G30C] | 0.42
GGCAGAGCUCAUCACAGCGUUGCGAAGUGGCUGUGGCUAGACUGCC [A12U G21U A24G] | 0.45
GGCAGAGCUCAUGACCGCGUUGCAAAGUGGCUGUGGCUAGACUGCC [A12U C13G A16C G21U] | 0
GGCAGAGCUCAUCAAAGCGUGGCAAAGUGACUGUGGCUAGACUGCC [A12U C15A G30A] | 0.03
GGCAGAGCUCAUCACAGCGAGGCAAAGUGGCUGUAGCUAGACUGCC [A12U U20A G35A] | 0.12
GGCAGAGCUCAUCACAGCGUGGCAAAGUGGCUGUUGCUAGCCUGCA [A12U G35U A41C C46A] | 0.01
GGCAGAGCUCAUCACAGCGUGGCAAAGUUGCAGUGGCUAGACUGCC [A12U G29U U32A] | 0.31
GGCAGAGCUCAUCACAGCGUCGCAAAGUGGCUGUGGAUAGUCUGCC [A12U G21C C37A A41U] | 0.04
GGCAGAGCUCAUCACAGCGUGGCAAAGCGGCUGUGGCUACACUGCC [A12U U28C G40C] | 0.06
GGCAGAGCUCAUCACAGCGUAGCAAAGUGGCUGUCGCUAGACUGCC [A12U G21A G35C] | 0.01
GGCAGAGCUCAUCACAGCAUGCCCAAGUGGCUGUGGCUAGACUGCC [A12U G19A G22C A24C] | 0.04
GGCAGAGCUCAUCACAGCGUCGCAAAAUGGCUGUGGCUAGACUGCC [A12U G21C G27A] | 0.18
GGCAGAGCUCAUCACAGCGGGCCAAAGUGGCUGUGGCUAGCCUGCC [A12U U20G G22C A41C] | 0.03
GGCAGAGCUCAUCACAGCGUGGCAAAGUGGCUGUGGCUAACCUGCC [A12U G40A A41C] | 0.1
GGCAGAGCUCAAAGUAGCGUGGCAAAGUUGCUGUGGCUAGACUGCA [C13A A14G C15U G29U C46A] | 0.27

Variant | self-cleavage
GGCAGAGCUCAUCACAGCGCGACAAAGUGGCUGAGAUUAGACUGGC [A12U U20C G22A U34A G36A C37U C45G] | 0.18
GGCAGAGCUCAUCACAGCGUCGUACAGUGGCUGUCGCUAGACUGCC [A12U G21C C23U A25C G35C] | 0.04
GGCAGAGCUCAUCAAAGCGUGGCAAAGUGGUUGUAGCUUGACUGCC [A12U C15A C31U G35A A39U] | 0.03
GGCAGAGCUCAAAUCAGCGUGGCAAAGUGGCUUUGGCUAGACUGCC [C13A A14U G33U] | 0.11
GGCAGAGCUCAUCACAGCGUGGCAAACUGGCUGUGGCUACACUGCC [A12U G27C G40C] | 0.05
GGCAGAGCUCAUCACAGGAUGGGAAAGUGGCUGUGGCUAGACUGCA [A12U C18G G19A C23G C46A] | 0.08
GGCAGAGCUCAAAGGAGCGUGGCACAGUGGCUGUGGCUAUACUGCC [C13A A14G C15G A25C G40U] | 0.03
GGCAGAGCUCAUCACAGCGUGGCAAAAUGGCUGUGGCUAGACUCCA [A12U G27A G44C C46A] | 0.11
GGCAGAGCUCAUCACAGCGUGGCAAAGUGGCUGUGGCUAGACUGUU [A12U C45U C46U] | 0.28
GGCAGAGCUCAUCACAGCGGGGACAAGUGGCUGCGGCUAUACUGCC [A12U U20G C23A A24C U34C G40U] | 0
GGCAGAGCUCAUCACAGAGUGGCAAAGUGGUUGUGGCUAGACUGCC [A12U C18A C31U] | 0.04
GGCAGAGCUCAAACCAGCUUGGCAAAGUGGCUGUGGCUAGACUGCC [C13A A14C G19U] | 0.22
GGCAGAGCUCAUUACAGCGUGACAAAGUGGCUGUGGCUAGACUGCC [A12U C13U G22A] | 0.15
GGCAGAGCUCAUCACAGCGUGGCAAAGUGCCUGUGGUUGUACUGCC [A12U G30C C37U A39G G40U] | 0.03
GGCAGAGCUCAUCAGAGCAUGGCAAAGUGGCUGUGGCUAGACUGCC [A12U C15G G19A] | 0.11
GGCAGAGCUCAUCACAGCGUGGCAAAGAGGGUGCGGCUGGACUGCC [A12U U28A C31G U34C A39G] | 0.01
GGCAGAGCUCAUCACAGCGUGGCAAAAUGGCUGUGGCUAGACUUCC [A12U G27A G44U] | 0.11
GGCAGAGCUCAUCACAGCUUGGCAAAGUGGCUAUGGCUAAACUGCC [A12U G19U G33A G40A] | 0.01
GGCAGAGCUCAAAACUGCAUGGUAAAGUGGCUGUGGCUAGACUGCC [C13A A16U G19A C23U] | 0.13

Variant | self-cleavage
GGCAGAGCUCAUCACACCGUGGCAAAGUGGCUUUGGGUACACUGCC [A12U G17C G33U C37G G40C] | 0.03
GGCAGAGCUCAUCACAGUGUGGCAACGUAGCUGUGGCUAGACUGCC [A12U C18U A26C G29A] | 0.66
GGCAGAGCUCAUCACAGCGUUGCAACGUGGCUGUGGCUAGACUGCC [A12U G21U A26C] | 0.59
GGCAGAGCUCAAAUCAGCGUGGCAAAGUGGCGGUGGCUAGUCUGCC [C13A A14U U32G A41U] | 0.03
GGCAGAGCUCAUCACAGCGCGGCAAAGUGGCUGUGGCUAGCCUGCC [A12U U20C A41C] | 0.01
GGCAGAGCUCAAAGCACCGUGGAACAGUGGCUAUGGCUAGACUUCC [C13A A14G G17C C23A A25C G33A G44U] | 0.01
GGCAGAGCUCAUCACAGCGUGGCAAUGUGGCUGUGGCUGGACUGCC [A12U A26U A39G] | 0.04
GGCAGAGCUCAUCAUAGCGUGGCAAAGUGGCUGGGGCUAGACUGCC [A12U C15U U34G] | 0.06
GGCAGAGCUCAUUACAGCGUGGGAAAGUGGCUGUGGCUAGACUGCC [A12U C13U C23G] | 0.35
GGCAGAGCUCAUCACAGCGUGGCAAAGGGGCUGUGGCUAGACUGCU [A12U U28G C46U] | 0.29
GGCAGAGCUCAUCACAGCUUGGCAAAGUGGAUGUGUCUAGACUGCG [A12U G19U C31A G36U C46G] | 0.01
GGCAGAGCUCAUCACACCGUGGCAAAGUGGCUGUGGAUAGACUGCC [A12U G17C C37A] | 0.05
GGCAGAGCUCAAAUCAGCGUUGCGAAGUGGCUGUGGCUAGACUGCC [C13A A14U G21U A24G] | 0.01
GGCAGAGCUCAAAACCGCGUGGCCAAGUGGCUCUGGCUAGACUGCC [C13A A16C A24C G33C] | 0.01
GGCAGAGCUCAUAACAGCGUGGCCAAGUGGCUGUGGCUAGACUGCU [A12U C13A A24C C46U] | 0.06
GGCAGAGCUCAUUACAGCGUGGCAAAGUGGCUGUGGCUAAACUGCC [A12U C13U G40A] | 0.03
GGCAGAGCUCAUCACAGCGUGGCAAAGUGGCUGUGAAUUGACUGCC [A12U G36A C37A A39U] | 0.12
GGCAGAGCUCAUCACAGCGUGGCAAUGGGGCUGUGGCUAGACUGCC [A12U A26U U28G] | 0.07
